About 50,000 (12%) of roughly 420,000 compounds were called active. Inconclusive results, whose numbers are uncertain, are shown with a selection of clear calls. Calls follow the shape of the dose curve; as a rule, active = well fitted inhibition curve with a large enough effect; inconclusive = small, poorly fitted or top-dose-only effect; inactive = flat fitted curve, though single readings scatter. No potency is given beside an inconclusive call; the fits are too rough.
Assay: qHTS for Inhibitors of human tyrosyl-DNA phosphodiesterase 1 (TDP1): qHTS in cells in presence of CPT; also: nearly all actives have a fitted effect of over 55% in size
Details: chicken DT40 Tdp1-/-;hTDP1 cells + 20 nM CPT, ATP luminescence, 48 h; activity change, negative = growth inhibition: at 46.2 µM (top of the series) unless noted
Outline: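 Chicken DT40 Tdp1-/- cells complemented with human TDP1, 400 cells/well, exposed to compounds plus 20 nM camptothecin for at least 48 h at 37 C; viability read as ATP content by CellTiter-Glo luminescence.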
% is scaled to controls: 0 for no effect and ±100 for the full control effect; potency is read from the fitted curve at half-maximal effect; tags tell the direction and shape of the fitted curve.

SMILES | Potency | activity change, negative = growth inhibition
CCOC(=O)c1ccc(NC(=O)c2c(NCc3cc(OC)c(OC)cc3OC)sc3c2CCCC3)cc1 | active: 23.1 µM | 
Cc1nc2ccccc2c(=O)n1-c1cccc(NC(=O)c2cccs2)c1 |  | inconclusive: -35.2% [inhibitor]
Cc1ccc(C(c2c(NC(=O)c3ccco3)sc(C)c2C)N2CCOCC2)cc1 (stereo unspecified) | inconclusive [inhibitor, single point] | 
CC1C/C(=C\c2cccnc2)C(=O)/C(=C/c2cccnc2)C1 (stereo unspecified) | active: 0.82 µM | 
CC1=C(C(=O)OCC2CCCCC2)C(c2cccc(F)c2F)CC(=O)N1 (stereo unspecified) | inconclusive [inhibitor, single point] | 
COc1ccc(CNC(=O)c2cc(C(=O)C3CC3)c[nH]2)cc1 | inconclusive [inhibitor, single point] | 
CC(NC(=O)NC(=O)c1ccc(Cl)cc1Cl)C1CC1 (stereo unspecified) | inactive | 
O=C(CN1CCOCC1)Nc1ccc(C2CCCCC2)cc1 | inconclusive [inhibitor, single point] | 
COCCNC(=O)c1ccc(N2CCCCC2)c(NS(=O)(=O)c2ccc(C)cc2)c1 | inconclusive [inhibitor, single point] | 
CCN(CC(=O)Nc1cc(S(=O)(=O)N2CCCCC2)ccc1C)Cc1ccccc1 | active: 20.6 µM | 
CCN(CC)CCNC(=O)c1cc2c(=O)n(CC)c3ccccc3c2s1 | inconclusive [inhibitor, single point] | 
COc1ccc(C(=O)O/N=C(\N)c2cccc(C)c2)cc1OC | inconclusive [inhibitor, partial curve] | 
CNC(=O)c1ccc2nc(-c3cccc(C)c3)c(-c3cccc(C)c3)nc2c1 | active: 11.2 µM | 
CC(OC(=O)CCC1CCCC1)C(=O)Nc1ccccc1[N+](=O)[O-] (stereo unspecified) | inactive | 
Cc1ccc(S(=O)(=O)n2nc(OC(=O)c3c(-c4ccccc4Cl)noc3C)cc2N)cc1 | active: 18.4 µM | 
C[C@H](NC(=O)C1CCN(S(=O)(=O)c2ccccc2)CC1)C(=O)NCc1ccncc1 | inactive | 
CCSc1nnc2n(-c3ccc(OC)cc3)c(=O)c3c4c(sc3n12)CCCC4 | inconclusive [inhibitor, single point] | 
CC(C)Oc1cccc(C(=O)Nc2ccc(N3CCN(S(C)(=O)=O)CC3)cc2)c1 | inactive | 
Cc1cccc(NC(=O)N2CCCC2C(=O)NCc2cccs2)c1 (stereo unspecified) | inactive | 
c1ccc(Nc2nc(NCC3CCCO3)c3ccccc3n2)cc1 (stereo unspecified) | active: 3.66 µM | 
O=C(c1ccccc1Cl)N1CCn2c1nc1ccccc12 | inactive | 

Reference: PubChem BioAssay AID686979 (National Center for Advancing Translational Sciences (NCATS), 2013)
